Results: the supplement of paper PMC11880418
Structures can show the parent of a compound that is named as a salt. The list shows a part of the results. The data scatter; read single values as rough.

system: PANC1; experiment: ALDHbr (CSC) cell proportion score relative to DMSO vehicle (ratio to DMSO); breast (SUM159) / gastric (MKN45) / pancreatic (PANC1) / colon cancer lines; ALDHbr cells have high ALDH activity and are rich in cancer stem cells (CSC); higher = more CSC (ALDHbr) cells remaining; conditions: 10 µM; 72 h
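Note: High-content imaging of ALDEFLUOR-stained cells with Hoechst-labelled nuclei in 384-well plates, triplicate wells, scored as Z-score against 0.1% DMSO vehicle, negative meaning fewer ALDHbr cells.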

| Compound | ALDHbr |
| --- | --- |
| Cc1ccc(NC(=O)c2ccc(CN3CCN(C)CC3)cc2)cc1Nc1nccc(-c2cccnc2)n1 [Imatinib] | 1.9 |
| Cc1c(O)cccc1C(=O)N[C@@H](CSc1ccccc1)[C@H](O)CN1C[C@H]2CCCC[C@H]2C[C@H]1C(=O)NC(C)(C)C [Nelfinavir mesylate] | 1.34 |
| CN[C@H]1CC[C@@H](c2ccc(Cl)c(Cl)c2)c2ccccc21 [Sertraline] | 1.1 |
| COc1c(N2C[C@@H]3CCCN[C@@H]3C2)c(F)cc2c(=O)c(C(=O)O)cn(C3CC3)c12 [Moxifloxacin] | 0.984 |
| CN1CCCC(n2nc(Cc3ccc(Cl)cc3)c3ccccc3c2=O)CC1 (centres undefined) [Azelastine hydrochloride] | 0.73 |
| Cc1[nH]c(=O)c(C#N)cc1-c1ccncc1 [Milrinone] | 0.761 |
| OC(CNCC(O)C1CCc2cc(F)ccc2O1)C1CCc2cc(F)ccc2O1 (centres undefined) [Nebivolol hydrochloride] | 0.984 |
| CCC(=O)OCC(=O)[C@@]1(OC(=O)CC)[C@H](C)C[C@H]2[C@H]3[C@H]([C@@H](O)C[C@@]21C)[C@@]1(C)C=CC(=O)C=C1C[C@H]3Cl [Alclometasone dipropionate] | 0.757 |
| CN(C)CCOC(c1ccccc1)c1ccccc1 [Diphenhydramine hydrochloride] | 0.939 |
| CCOc1ccc(Cc2nccc3cc(OCC)c(OCC)cc23)cc1OCC [Ethaverine hydrochloride] | 1.07 |

system: SUM159; experiment: as above; conditions: 10 µM; 72 h

| Compound | ALDHbr |
| --- | --- |
| Cc1c(N(C)CS(=O)(=O)O)c(=O)n(-c2ccccc2)n1C [Dipyrone] | 0.782 |
| C=CCN1CCCC1CNC(=O)c1cc2nn[nH]c2cc1OC (centres undefined) [Alizapride hydrochloride] | 1.08 |
| CCCCOC(=O)c1ccc(O)cc1 [Butylparaben] | 1 |
| CC1CCc2cc(F)cc3c(=O)c(C(=O)O)cn1c23 (centres undefined) [Flumequine] | 0.97 |
| N[C@@H](C(=O)N[C@@H]1C(=O)N2C(C(=O)O)=C(Cl)CS[C@H]12)c1ccccc1 [Cefaclor hydrate] | 1.07 |
| CNCCCC1c2ccccc2C=Cc2ccccc21 [Protriptyline hydrochloride] | 0.624 |
| CN(C)CCC=C1c2ccccc2C=Cc2ccccc21 [Cyclobenzaprine hydrochloride] | 0.653 |
| COc1cc(C(=O)NC2CCCNC2)cc(OC)c1OC (centres undefined) [Troxipide] | 0.985 |
| CCCN(CCC)C(=O)C(CCC(=O)O)NC(=O)c1ccccc1 (centres undefined) [Proglumide] | 0.961 |
| CC(=O)Nc1c(I)c(NC(C)=O)c(I)c(C(=O)O)c1I [Diatrizoic acid dihydrate] | 1.07 |
| Cc1nc2n(c(=O)c1CCN1CCC(c3noc4cc(F)ccc34)CC1)CCCC2 [Risperidone] | 0.816 |
| Cc1cccc(N(C)C(=S)Oc2ccc3ccccc3c2)c1 [Tolnaftate] | 0.889 |
| COc1cc2c(cc1OC)C(=O)C(CC1CCN(Cc3ccccc3)CC1)C2 (centres undefined) [Donepezil hydrochloride] | 0.86 |
| CCCc1cc(=O)[nH]c(=S)[nH]1 [Propylthiouracil] | 1.19 |
| O=C1OC(CN2CCOCC2)CN1/N=C/c1ccc([N+](=O)[O-])o1 (centres undefined) [Furaltadone hydrochloride] | 0.0986 |
| Cc1cccn2c(=O)c(-c3nnn[nH]3)cnc12 [Pemirolast potassium] | 1.18 |
| CCCCCCNC(=O)n1cc(F)c(=O)[nH]c1=O [Carmofur] | 0.454 |
| CN(C)CCn1nnnc1SCC1=C(C(=O)O)N2C(=O)[C@@H](NC(=O)Cc3csc(N)n3)[C@H]2SC1 [Cefotiam hydrochloride] | 0.835 |
| NC[C@@H]1O[C@H](O[C@H]2[C@@H](O)[C@H](O[C@@H]3[C@@H](O)[C@H](N)C[C@H](N)[C@H]3O[C@H]3O[C@H](CN)[C@@H](O)[C@H](O)[C@H]3N)O[C@@H]2CO)[C@H](N)[C@@H](O)[C@@H]1O [Neomycin sulfate] | 1.14 |
| NS(=O)(=O)c1cc2c(cc1C(F)(F)F)NCNS2(=O)=O [Hydroflumethiazide] | 0.842 |
| N=C(N)c1ccc(OCCCCCOc2ccc(C(=N)N)cc2)cc1 [Pentamidine isethionate] | 0.302 |
| CC(C)Cc1ccc([C@H](C)C(=O)O)cc1 [S-(+)-ibuprofen] | 0.942 |
| CS(=O)(=O)OCCCCOS(C)(=O)=O [Busulfan] | 0.922 |
| CN(C(=O)CN(CCO)CC(=O)N(C)C(C)(C)Cc1ccccc1)C(C)(C)Cc1ccccc1 [Oxethazaine] | 1.56 |
